In the supplement of paper PMC6531468:
Some of the results follow. Read counts after selection give these values, which scatter widely. Scores sum up all selected molecules that hold the word; the word was not tested alone.

Assays:
Assay in all cases: 6-mer SELEX enrichment z-score vs GST control; IMP3 is the RNA-binding protein IGF2BP3; higher = more enriched by binding
IMP3 KH1-4 = details: construct: KH1-4 (164-579); SELEX round: R4
Procedure: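 SELEX-seq with GST-tagged IMP3 KH1-4 (Pro164-Lys579) and an N40 RNA pool, round 4. 6-mer z-score of sequence-tag enrichment normalised to the corresponding GST SELEX round; RNA k-mers written as DNA (T for U).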

IMP3 RRM1-2 = details: construct: RRM1-2 (1-163); SELEX round: R2
Chain of IMP3 RRM1-2 (chain, as listed by the source): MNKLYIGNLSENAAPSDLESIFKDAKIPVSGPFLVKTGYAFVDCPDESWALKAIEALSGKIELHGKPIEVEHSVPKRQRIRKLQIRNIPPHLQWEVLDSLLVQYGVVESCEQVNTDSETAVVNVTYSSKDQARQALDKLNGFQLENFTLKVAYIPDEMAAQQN
Procedure: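 SELEX-seq with GST-tagged IMP3 RRM1-2 (Met1-Asn163) and an N40 RNA pool, round 2. 6-mer enrichment z-score normalised to GST SELEX. RNA written as DNA (T = U).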

IMP3 full-length = IMP3 full-length (UniProt O00425); details: construct: FL IMP3 (1-579); SELEX round: R4
Chain of UniProt O00425 (O00425 whole entry): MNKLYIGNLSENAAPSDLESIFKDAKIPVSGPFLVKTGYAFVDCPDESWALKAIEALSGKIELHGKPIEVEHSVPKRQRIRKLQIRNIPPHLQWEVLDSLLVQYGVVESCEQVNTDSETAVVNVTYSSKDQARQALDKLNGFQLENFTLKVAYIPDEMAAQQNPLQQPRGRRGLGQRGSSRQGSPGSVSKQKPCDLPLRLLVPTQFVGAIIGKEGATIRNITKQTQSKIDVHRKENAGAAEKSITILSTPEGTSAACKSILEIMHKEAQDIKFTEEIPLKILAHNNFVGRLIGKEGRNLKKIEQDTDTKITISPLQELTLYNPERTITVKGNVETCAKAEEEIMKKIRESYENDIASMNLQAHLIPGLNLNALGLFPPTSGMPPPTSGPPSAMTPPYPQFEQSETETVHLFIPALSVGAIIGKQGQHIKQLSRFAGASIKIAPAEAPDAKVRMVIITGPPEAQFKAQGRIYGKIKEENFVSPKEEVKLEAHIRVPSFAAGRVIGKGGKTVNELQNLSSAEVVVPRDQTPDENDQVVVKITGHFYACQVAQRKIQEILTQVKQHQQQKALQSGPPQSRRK
Procedure: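 SELEX-seq with GST-tagged full-length IMP3 and an N40 RNA pool, round 4. Each 6-mer is scored as an enrichment z-score of sequence tags containing it, normalised to the matching GST SELEX round. RNA written as DNA (T = U).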

IMP3 KH1-2 = details: construct: KH1-2 (164-376); SELEX round: R4
Chain of IMP3 KH1-2 (chain, as listed by the source): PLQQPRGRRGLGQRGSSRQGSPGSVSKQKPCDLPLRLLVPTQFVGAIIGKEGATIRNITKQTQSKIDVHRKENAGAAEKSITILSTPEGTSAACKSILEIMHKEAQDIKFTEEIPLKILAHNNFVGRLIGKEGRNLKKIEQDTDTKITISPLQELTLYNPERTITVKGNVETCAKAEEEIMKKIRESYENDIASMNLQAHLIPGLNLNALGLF
Procedure: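 SELEX-seq with GST-tagged IMP3 KH1-2 (Pro164-Phe376) and an N40 RNA pool, round 4 (stringent 300/600 mM KCl washes). 6-mer z-score of sequence-tag enrichment normalised to the corresponding GST SELEX round; RNA k-mers written as DNA (T for U).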

Chain of IMP3 KH1-4 (chain, as listed by the source): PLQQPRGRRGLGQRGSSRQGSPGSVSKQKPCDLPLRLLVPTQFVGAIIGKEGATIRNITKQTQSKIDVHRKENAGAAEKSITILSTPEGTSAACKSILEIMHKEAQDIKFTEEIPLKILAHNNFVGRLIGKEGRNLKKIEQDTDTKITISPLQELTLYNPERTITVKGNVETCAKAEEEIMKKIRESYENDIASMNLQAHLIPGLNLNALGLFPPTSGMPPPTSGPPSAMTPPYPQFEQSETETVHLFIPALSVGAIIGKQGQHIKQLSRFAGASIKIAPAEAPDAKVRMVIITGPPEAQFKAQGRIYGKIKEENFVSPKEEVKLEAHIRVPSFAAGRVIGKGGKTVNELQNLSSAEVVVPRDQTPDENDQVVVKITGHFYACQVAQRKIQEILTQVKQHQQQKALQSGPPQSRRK

Sequence | 6-mer SELEX enrichment z-score (IMP3 KH1-4) | 6-mer SELEX enrichment z-score (IMP3 RRM1-2) | 6-mer SELEX enrichment z-score (IMP3 full-length) | 6-mer SELEX enrichment z-score (IMP3 KH1-2)
GCCTTA | -0.233 | -0.186 | -0.435 | -0.264
CACAAT | 1.97 | 1.87 | 2.01 | 2.21
GGTGGT | 0.346 | 0.472 | 0.41 | –
AGCATA | -0.216 | 0.429 | 0.319 | –
ACTGCG | -0.643 | -0.131 | -0.344 | –
ATGACA | 1.92 | 0.019 | 0.796 | –
GCAGAT | 0.372 | 0.222 | 0.518 | –
TGATGC | -0.166 | -0.268 | -0.374 | –
ACGTAT | -0.497 | -0.252 | -0.47 | –
ACGCCG | -0.228 | -0.484 | 0.162 | -0.044
GCTGGT | -0.135 | 0.301 | 0.093 | –
AGAGTG | -1.04 | -0.341 | -0.865 | –
TCAAGT | -0.059 | 0.549 | 0.358 | -0.161
GTGTAC | -0.641 | 0.053 | -0.232 | -0.593
TCGTGG | -0.328 | 0.24 | 0.019 | –
CCTAAC | -1.23 | -0.638 | -1.48 | -1.16
CCAAGC | -1.72 | -0.235 | -1 | –
TAAATT | 1.12 | -0.393 | -0.229 | 1.04
ACATCG | -0.027 | 0.587 | 0.893 | –
AAAGCC | -1.66 | -1.74 | -1.91 | -1.52
TCCTCC | 0.579 | -0.106 | -0.348 | 0.437
TGCCTG | -0.688 | -0.032 | -0.593 | –
AAAGTT | -0.168 | -0.578 | -0.649 | –
CGGTTG | -0.172 | 0.251 | 0.058 | –

Sequence | 6-mer SELEX enrichment z-score (IMP3 KH1-4) | 6-mer SELEX enrichment z-score (IMP3 RRM1-2) | 6-mer SELEX enrichment z-score (IMP3 full-length) | 6-mer SELEX enrichment z-score (IMP3 KH1-2)
TCCAGT | 0.452 | 0.117 | 0.151 | 0.173
ATATAA | 2.41 | -0.131 | 0.402 | –
GGTGGA | 0.43 | -0.1 | 0.228 | –
AGATTG | 0.364 | -0.429 | -0.182 | 0.262
CTTATC | 0.365 | 0.393 | – | –
GATATT | 0.987 | 0.019 | 0.088 | 0.796
TGTAGA | -0.457 | -0.336 | -0.744 | -0.486
AACATA | 2.6 | 1.77 | 2.11 | –
ATCCCA | -0.962 | -0.502 | -0.938 | -1.03
TCGATG | -0.507 | -0.15 | – | –
CTACCT | -0.988 | -0.244 | -0.906 | –
GTACGG | 0.431 | 0.022 | 0.671 | –
ACCTAA | -2.04 | -1.17 | -2.27 | –
GCCTGG | -0.498 | -0.018 | -0.038 | –
GCCTGT | -0.21 | -0.01 | -0.183 | -0.172
TGGGCT | -0.142 | 0.46 | 0.187 | -0.012
ACCCGT | -0.977 | -0.542 | -0.694 | -0.953
TCGCCT | -0.156 | 0.108 | -0.051 | -0.05
GACAGC | -0.433 | -0.054 | 0.466 | -0.332
TAAAGC | -0.819 | -0.639 | -0.99 | -0.875
GCGAGC | -1.91 | 0.02 | 0.17 | -1.65
ATGACT | 0.602 | -0.37 | -0.38 | 0.473
GGCACC | 0.303 | 0.408 | 1.67 | 0.155
ACCACG | -0.712 | 0.511 | -0.194 | -0.872

Sequence | 6-mer SELEX enrichment z-score (IMP3 KH1-4) | 6-mer SELEX enrichment z-score (IMP3 RRM1-2) | 6-mer SELEX enrichment z-score (IMP3 full-length) | 6-mer SELEX enrichment z-score (IMP3 KH1-2)
AGCCCG | -1.26 | -0.781 | -0.492 | -1.03
AATTAA | 1.62 | -0.924 | -0.344 | 1.56
ATAAAA | 0.955 | -1.81 | -0.936 | 1.4
AAATAA | 1.35 | -1.98 | -1.14 | 1.48
TCGGGA | -0.432 | -0.029 | 0.061 | -0.306
CATATA | 2.55 | 1.15 | 1.35 | 2.43
TTGAAT | 0.669 | -0.345 | -0.306 | 0.363
AGCTTG | -0.612 | 0.024 | -0.257 | -0.485
TAGTCG | 0.545 | 0.393 | 0.484 | 0.362
AACACC | -1.24 | 0.285 | -1.06 | -0.928
TAAGGC | 0.462 | 0.143 | 0.32 | 0.251
CAACGG | -0.319 | -0.176 | 0.625 | -0.565
GAGTTT | -0.261 | 0.22 | -0.185 | -0.204
ATAGAA | 1.51 | -0.77 | 0.137 | 1.47
TCCGCT | 0.354 | 0.021 | 0.247 | 0.675
TGCACC | 0.209 | -0.137 | 0.071 | 0.026
TGATAA | 1.33 | -0.911 | -0.339 | 0.951
GTATCA | -0.371 | 0.484 | 0.185 | -0.368
CGAATT | -0.13 | -0.566 | -0.499 | -0.134
ACGAAA | -0.827 | -2.19 | -1.79 | -0.728
CGGGGG | 0.757 | -0.059 | 0.555 | 1.68
CAGGAT | 0.915 | 0.246 | 0.538 | 0.75
GCAATG | 0.585 | -0.058 | 0.393 | 0.269
GATTCT | 0.34 | 0.093 | -0.015 | 0.306

Sequence | 6-mer SELEX enrichment z-score (IMP3 KH1-4) | 6-mer SELEX enrichment z-score (IMP3 RRM1-2) | 6-mer SELEX enrichment z-score (IMP3 full-length) | 6-mer SELEX enrichment z-score (IMP3 KH1-2)
TATTCA | 1.16 | 0.974 | 0.742 | 1.13
ACTTTG | 0.064 | -0.002 | -0.273 | 0.001
AGGGAC | 0.23 | -0.219 | -0.113 | 0.184
ACTGCT | 0.537 | 0.009 | 0.053 | 0.661
CGGTGA | 0.013 | -0.328 | 0.221 | -0.012
AGCGCA | -1.34 | 0.038 | -0.004 | -1.3
TTGCCA | 0.016 | -0.051 | -0.199 | -0.064
CCTAAA | -1.81 | -1.58 | -2.23 | -1.73
CGGTAG | -0.253 | 0.08 | 0.021 | -0.235
CAGACG | -0.756 | -0.262 | 0.111 | -0.631
ATTTTA | 1.47 | 0.21 | 0.42 | 1.4
TTTCTC | 0.563 | 0.511 | 0.312 | 0.653
ATGATG | 1.59 | -0.367 | -0.084 | 0.955
CCTATT | 0.399 | 0.154 | -0.187 | 0.342
GTACCC | -0.876 | 0.256 | 0.033 | -0.834
GATAGC | -0.079 | -0.26 | -0.129 | -0.063
CCTGAA | -1.1 | -1.18 | -1.48 | -1.14
TTGGAG | -0.124 | 0.098 | -0.091 | -0.117
GATTCG | -0.043 | -0.155 | -0.087 | -0.129
GCCACG | -0.26 | -0.434 | 0.21 | -0.273
CCAACT | -0.729 | -0.435 | -0.963 | -0.657
GGCAAG | 0.913 | 0.087 | 1.18 | 0.665
TGCAGG | 1.07 | 0.235 | 0.747 | 0.924
TATCTA | 0.251 | 0.234 | -0.116 | 0.21

Sequence | 6-mer SELEX enrichment z-score (IMP3 KH1-4) | 6-mer SELEX enrichment z-score (IMP3 RRM1-2) | 6-mer SELEX enrichment z-score (IMP3 full-length) | 6-mer SELEX enrichment z-score (IMP3 KH1-2)
GAGCAG | -0.781 | -0.01 | 0.186 | -0.726
CCTTTA | 0.709 | -0.157 | -0.206 | 0.6
ACCGGC | 0.681 | -0.206 | 1.39 | 0.353
CTTCCA | 0.56 | 0.386 | -0.116 | 0.431
GGGTCC | -0.152 | 0.106 | 0.297 | 0.042
TATGTG | 0.694 | 0.134 | -0.166 | 0.413
GCGAAG | -0.995 | -0.596 | -0.557 | -0.867
ACCGGT | -0.291 | -0.285 | -0.131 | -0.362
AGCAAG | -0.175 | 0.094 | 0.317 | -0.179
GGTCAA | 0.022 | 0.024 | 0.303 | -0.133
TACATA | 2.24 | 1.19 | 1.81 | 2.68
AGTTTC | -0.346 | 0.388 | 0.004 | -0.284
ATCAGA | 0.601 | 1.36 | 1.33 | 0.611
TCCACC | -0.331 | -0.08 | -0.583 | -0.339
CCAGCG | -2.24 | -0.38 | -0.945 | -2.03
CGGAGT | -0.411 | -0.226 | -0.116 | -0.355
GAGCAC | -1.05 | 1.1 | 0.891 | -0.935
TACGTA | -0.239 | -0.235 | -0.377 | -0.329
ACTTGT | -0.091 | 0.119 | -0.199 | -0.224
TCGAAG | -1.1 | -0.453 | -0.701 | -1.01
TTCACT | 1.15 | 1.06 | 0.857 | 1.19
GGCCTC | -0.319 | 0.231 | 0.487 | -0.249
CATTGT | 0.611 | 0.672 | 0.662 | 0.336
AACAAA | -0.093 | -0.243 | -0.842 | 0.449
